From a collection of fitness landscapes (doi:10.1126/science.1257360)
This is one part of the list.

B1: PhoQ; a variant is named by its letters at X, in order, P23837 (parent)
chain: MKKLLRLFFPLSLRVRFLLATAAVVLVLSLAYGMVALIGYSVSFDKTTFRLLRGESNLFYTLAKWENNKLHVELPENIDKQSPTMTLIYDENGQLLWAQRDVPWLMKMIQPDWLKSNGFHEIEADVNDTSLLLSGDHSIQQQLQEVREDDDDAEMTHSVAVNVYPATSRMPKLTIVVVDTIPVELKSSYMVWSWFIYVLSANLLLVIPLLWVAAWWSLRPIEALAKEVRELEEHNRELLNPATTRELTSLVRNLNRLLKSERERYDKYRTTLTDLTHSLKTPLXXLQXXLRSLRSEKMSVSDAEPVMLEQISRISQQIGYYLHRASMRGGTLLSRELHPVAPLLDNLTSALNKVYQRKGVNISLDISPEISFVGEQNDFVEVMGNVLDNACKYCLEFVEISARQTDEHLYIVVEDDGPGIPLSKREVIFDRGQRVDTLRPGQGVGLAVAREITEQYEGKIVAGESMLGGARMEVIFGRQHSAPKDE

Variants of: B1
Assay: enrichment ratio after two sorts for PhoP signalling (ratio (wild type AVST 3.29)); higher = more functional
Conditions: with PhoP (E. coli)

ADFQ and VMRP cannot be ordered by enrichment ratio: ≤ 0.25 for the first, ≤ 0.25 for the second.

HLFV and NSMD cannot be ordered by enrichment ratio: ≤ 0.25 for the first, ≤ 0.25 for the second.

HFTI and PNCQ cannot be ordered by enrichment ratio: ≤ 0.25 for the first, ≤ 0.25 for the second.

RDMQ and NWIY cannot be ordered by enrichment ratio: ≤ 0.25 for the first, ≤ 0.25 for the second.

VRQG and IHMS cannot be ordered by enrichment ratio: ≤ 0.25 for the first, ≤ 0.25 for the second.

Compared with TCHK, FELM is higher in enrichment ratio: 3.74 for the first, 7.7 for the second.

LKDV and GTMP cannot be ordered by enrichment ratio: ≤ 0.25 for the first, ≤ 0.25 for the second.

Compared with FYPQ, ARAY is higher in enrichment ratio: ≤ 0.25 for the first, 1.11 for the second.

WWKF and MERY cannot be ordered by enrichment ratio: ≤ 0.25 for the first, ≤ 0.25 for the second.

YEKP and HNFM cannot be ordered by enrichment ratio: ≤ 0.25 for the first, ≤ 0.25 for the second.

DMGD and QFEN cannot be ordered by enrichment ratio: ≤ 0.25 for the first, ≤ 0.25 for the second.

EETK and REWQ cannot be ordered by enrichment ratio: ≤ 0.25 for the first, ≤ 0.25 for the second.

PMVW and EANQ cannot be ordered by enrichment ratio: ≤ 0.25 for the first, ≤ 0.25 for the second.

SKMN and VFWN cannot be ordered by enrichment ratio: ≤ 0.25 for the first, ≤ 0.25 for the second.

IAVE and WKVR cannot be ordered by enrichment ratio: ≤ 0.25 for the first, ≤ 0.25 for the second.

SQWQ and GTGW cannot be ordered by enrichment ratio: ≤ 0.25 for the first, ≤ 0.25 for the second.

YCTD and GMVN cannot be ordered by enrichment ratio: ≤ 0.25 for the first, ≤ 0.25 for the second.

FNPN and MVLA cannot be ordered by enrichment ratio: ≤ 0.25 for the first, ≤ 0.25 for the second.

LFCV and YEDC cannot be ordered by enrichment ratio: ≤ 0.25 for the first, ≤ 0.25 for the second.

TLFL and MDQD cannot be ordered by enrichment ratio: ≤ 0.25 for the first, ≤ 0.25 for the second.

DDDS and KYWS cannot be ordered by enrichment ratio: ≤ 0.25 for the first, ≤ 0.25 for the second.

PLGC and MPPI cannot be ordered by enrichment ratio: ≤ 0.25 for the first, ≤ 0.25 for the second.

DTMQ and IINH cannot be ordered by enrichment ratio: ≤ 0.25 for the first, ≤ 0.25 for the second.

Compared with QHGY, SEDS is lower in enrichment ratio: 8.42 for the first, ≤ 0.25 for the second.

RYQH and FSQS cannot be ordered by enrichment ratio: ≤ 0.25 for the first, ≤ 0.25 for the second.

FAAR and KNHF cannot be ordered by enrichment ratio: ≤ 0.25 for the first, ≤ 0.25 for the second.

LVRA and RNRW cannot be ordered by enrichment ratio: ≤ 0.25 for the first, ≤ 0.25 for the second.

GMMS and SKSK cannot be ordered by enrichment ratio: ≤ 0.25 for the first, ≤ 0.25 for the second.

VCYF and YAAF cannot be ordered by enrichment ratio: ≤ 0.25 for the first, ≤ 0.25 for the second.

SYWA and FWYT cannot be ordered by enrichment ratio: ≤ 0.25 for the first, ≤ 0.25 for the second.

Going from TTQG to IKEK, the enrichment ratio falls from 6.42 to ≤ 0.25.

VVNV and NWEH cannot be ordered by enrichment ratio: ≤ 0.25 for the first, ≤ 0.25 for the second.

VCWH and HWIG cannot be ordered by enrichment ratio: ≤ 0.25 for the first, ≤ 0.25 for the second.

DHIR and HMWL cannot be ordered by enrichment ratio: ≤ 0.25 for the first, ≤ 0.25 for the second.

IMFC and EFHA cannot be ordered by enrichment ratio: ≤ 0.25 for the first, ≤ 0.25 for the second.

EFLR and ALPE cannot be ordered by enrichment ratio: ≤ 0.25 for the first, ≤ 0.25 for the second.

KDQD and WYQK cannot be ordered by enrichment ratio: ≤ 0.25 for the first, ≤ 0.25 for the second.

QHNW and CMIP cannot be ordered by enrichment ratio: ≤ 0.25 for the first, ≤ 0.25 for the second.

FNYV and PDFR cannot be ordered by enrichment ratio: ≤ 0.25 for the first, ≤ 0.25 for the second.

First: SMTV
Second: MFLQ
The enrichment ratio of the first is higher: 11.4 for the first, ≤ 0.25 for the second.

Compared with TQVQ, MDVI is lower in enrichment ratio: 13.8 for the first, ≤ 0.25 for the second.

EYKM and MWPF cannot be ordered by enrichment ratio: ≤ 0.25 for the first, ≤ 0.25 for the second.
